B1: LINE1-mini (parent)
chain: GGCAGAGCUCAACACAGCGUGGCAAAGUGGCUGUGGCUAGACUGCC

The source gives no read counts; variants with many changes may rest on few reads.

The variants in the data set derive from B1. Kind of data set: self-cleavage, relative activity (ratio to wild type); higher = more cleavage; in vitro, sequencing; the parent is a self-cleaving ribozyme.
Regarding GGCAGAGCUCAACACAGCGUGGCUAAGAGGAUGUGGCUGCACUGCC, the self-cleavage was found to be 0.04.
As for GGCAGAGCUCAACACAGCGUGGCUAAGUGGCUGGGGCUACACUGCC, the self-cleavage turned out to be 0.01.
Under GGCAGAGCUCAACACAGCGUGGCGAAGUAGCUGUGGCUAGAGUGCC stands 0.07; under GGCAGAGCUCAACACAGCGUGGCCAAAUGGCUGUGGCGAGACGGCC, 0; under GGCAGAGCUCAACACAGCGUGGCUAAGCGGCUGUGGCUAAACUGCC, 0.13.
The figure for GGCAGAGCUCAACACAGCGUGGCUAAGUGGCUUUGGCUUGACUGCC is 0.04; for GGCAGAGCUCAACACAGCGUGGCACAAUGGCUGUGUCUAGACUGGC it is 0.02; for GGCAGAGCUCAACACAGCGUGGCACUGUAGCUGUGAGUAGACUGCC it is 0.02.
Under GGCAGAGCUCAACACAGCGUGGCACCGUGGCUGUGGCUGGACUGCC stands 0.03; under GGCAGAGCUCAACACAGCGUGGCAGAGUGGCUGUGGGUAGACGGCC, 0; under GGCAGAGCUCAACACAGCGUGGCCAAGUGGCUGCGGCUCGACUGCC, 0.04.
For the variant GGCAGAGCUCAACACAGCGUGGCUAAGUGGCUUUGGCUAGACUGCA, the self-cleavage came to 0.05.
The figure for GGCAGAGCUCAACACAGCGUGGCACAGUGGGUGCGGCUAGACUUCC is 0.01.
The figure for GGCAGAGCUCAACACAGCGUGGCCAAGUGGCGGAGGCUAGACUGCC is 0.03.
For GGCAGAGCUCAACACAGCGUGGCAGAGUGGCUGUGGCUAGACUUCA, the self-cleavage is 0.05.
The figure for GGCAGAGCUCAACACAGCGUGGCGAAGUGGCUAUGGCUAGACCGCC is 0.07.
The figure for GGCAGAGCUCAACACAGCGUGGCAGACUGGCUGUGUCUAGACUGCC is 0.04.
With GGCAGAGCUCAACACAGCGUGGCGAAGUGGCUCUGGCUAGACUGCG, the self-cleavage was determined as 0.06.
Under GGCAGAGCUCAACACAGCGUGGCCAAGUGGCGGUGGUUAGACUGCC stands 0.03; under GGCAGAGCUCAACACAGCGUGGCUAAGUGCCUGUGGCUUGACUACC, 0.03; under GGCAGAGCUCAACACAGCGUGGCCAAGUGGCUGUGGCGAGUCUGCC, 0.02.
The figure for GGCAGAGCUCAACACAGCGUGGCAGAGUGGCUGUGACUAGACUGGC is 0.03; for GGCAGAGCUCAACACAGCGUGGCCAAGUCGCUGUCGCUAGACUGCU it is 0.27.
Under GGCAGAGCUCAACACAGCGUGGCCAAGUGGCUGUGGCUAGAGUUAC stands 0.02; under GGCAGAGCUCAACACAGCGUGGCCAAGUGGCUGUGGCUAGAAUGGC, 0.08; under GGCAGAGCUCAACACAGCGUGGCUAAGUGGCUGAGGCUAGUCUGCC, 0.04.
For GGCAGAGCUCAACACAGCGUGGCCAAGGGGCUGUGGCUAGAAUGCC, the self-cleavage was found to be 0.16.
Under GGCAGAGCUCAACACAGCGUGGCUAAAUGGCUGUGGCUAGACUGCA stands 0.26; under GGCAGAGCUCAACACAGCGUGGCACAGUGGCUGAGGCUAGACUGAC, 0.06; under GGCAGAGCUCAACACAGCGUGGCAGAGUUGCUUUGGCUAGACCGCC, 0.18.
The figure for GGCAGAGCUCAACACAGCGUGGCACAGUAGCUGUGGCUUGCCUGCC is 0.12; for GGCAGAGCUCAACACAGCGUGGCGAAGUGGCUGUGGCUACACUGUC it is 0.1.
With GGCAGAGCUCAACACAGCGUGGCGAACUGUGUGUCGCUAGACUGCC, the self-cleavage came out at 0.
Under GGCAGAGCUCAACACAGCGUGGCACAGUUGCUGUGACUAGACUGCC stands 0.17; under GGCAGAGCUCAACACAGCGUGGCGAAGUGGAUGUGGCUAGACAGCC, 0.19.
Under GGCAGAGCUCAACACAGCGUGGCACAUUGGCUGCGGCUAGACUGCC stands 0.07; under GGCAGAGCUCAACACAGCGUGGCACAGUACCUGUGGGUAGGCUGAC, 0; under GGCAGAGCUCAACACAGCGUGGCAGAGUGGCUCUGGCUAGAAUGCC, 0.03.
Under GGCAGAGCUCAACACAGCGUGGCAGGGUGGAUGUGGCUAGACUGCC stands 0.01; under GGCAGAGCUCAACACAGCGUGGCAGAGUGGCUGUAGCUAGACUACC, 0.07.
For the variant GGCAGAGCUCAACACAGCGUGGCUUAGUGGAUGUGGCUAGACUGCC, the self-cleavage amounted to 0.04.
The figure for GGCAGAGCUCAACACAGCGUGGCAGAGUGCCUGUGACUAGACUGCC is 0.01; for GGCAGAGCUCAACACAGCGUGGCACAAUGGCUGUGGCUAUACGGCC it is 0.01; for GGCAGAGCUCAACACAGCGUGGCGAUGUGGUUGUGGCUAGACUGCC it is 0.1.
For the variant GGCAGAGCUCAACACAGCGUGGCAGAGUGGCUGUGGCUGGACUGUC, the self-cleavage was 0.01.
The figure for GGCAGAGCUCAACACAGCGUGGCGAAGUGGGUGUGGCUAGACUGCG is 0.03; for GGCAGAGCUCAACACAGCGUGGCGAAGUGAAUGUGGCUAGACUGCC it is 0.05; for GGCAGAGCUCAACACAGCGUGGCGAAGCGGUUCUGGCUAGACUGCC it is 0.06.
The figure for GGCAGAGCUCAACACAGCGUGGCCAAUUCGCUGUGGCUAGACUGCC is 0.75.
Under GGCAGAGCUCAACACAGCGUGGCACAGUGGCUGUGGCUAGUCUCCC stands 0.14; under GGCAGAGCUCAACACAGCGUGGCGAAGUGGCAGUGGCUACACUGCC, 0.02; under GGCAGAGCUCAACACAGCGUGGCGAAGUGGCUGUGGCUAGACUGAA, 0.59.
Turning to GGCAGAGCUCAACACAGCGUGGCCAAUUGGCUGUGGCUAGGCACCC, the self-cleavage turned out to be 0.05.
The figure for GGCAGAGCUCAACACAGCGUGGCCAAGUGGCUGUUGCUAGACUGAC is 0.
As for GGCAGAGCUCAACACAGCGUGGCCAAGUGGCUUUGGCUAGACUGCU, the self-cleavage was determined as 0.07.
The figure for GGCAGAGCUCAACACAGCGUGGCUCAGUUGCUGUGGCUAGACUGCC is 1.06.
Consider GGCAGAGCUCAACACAGCGUGGCAGAGUGGAUGUGGCUAGCCUGCC, for which the self-cleavage is 0.02.
Under GGCAGAGCUCAACACAGCGUGGCCAAGUGGCUGUGGCUAUGCUACC stands 0.08; under GGCAGAGCUCAACACAGCGUGGCGAAGUGACUGUGGCUAGACUCCC, 0.15.
The figure for GGCAGAGCUCAACACAGCGUGGCUAAGUAGCUGUGGAUAGACUGUC is 0.2.
As to GGCAGAGCUCAACACAGCGUGGCCAAGUGUCUGUGGCUAGACUGCU, the self-cleavage was found to be 0.19.
Under GGCAGAGCUCAACACAGCGUGGCGAACUGGCUGUGGUUAGACUGCC stands 0.04.
Under GGCAGAGCUCAACACAGCGUGGCCAAGUGGCUGAGGCUAGACUUCC stands 0.11; under GGCAGAGCUCAACACAGCGUGGCACAGUGGCUGUGUCUAAACUGCC, 0.03; under GGCAGAGCUCAACACAGCGUGGCACAGUGGCUUUGGCUAGUCUGCC, 0.13.
Turning to GGCAGAGCUCAACACAGCGUGGCAGAGUGGCUAUGACUAGCCUGCC, the self-cleavage was found to be 0.05.
Take GGCAGAGCUCAACACAGCGUGGCCAAGUUGCUGUCGCUAGCCUGUC: the self-cleavage was 0.07.
Under GGCAGAGCUCAACACAGCGUGGCUAAGGGGCUGUGGCUAGACUGUC stands 2.5.
The figure for GGCAGAGCUCAACACAGCGUGGCGAAGUUGCUGUGGCUAGAUUGCC is 1.02.
Under GGCAGAGCUCAACACAGCGUGGCACCGUGGUUGUGGCUAGACUGCC stands 0.11; under GGCAGAGCUCAACACAGCGUGGCAGAGUGGAGGUGGCUACACAGCC, 0.17; under GGCAGAGCUCAACACAGCGUGGCGAAGUGGCUGUGACAAUACCGCC, 0.01.
Turning to GGCAGAGCUCAACACAGCGUGGCUAAGUGGCUGUGGCAAGUCUGCC, the self-cleavage worked out at 0.22.
The figure for GGCAGAGCUCAACACAGCGUGGCCAAGUGGCUCUGACUAGACUGGC is 0.01.
Under GGCAGAGCUCAACACAGCGUGGCUAAGUGGUUAUGGCUAGACUGCA stands 0.03.
The figure for GGCAGAGCUCAACACAGCGUGGCGAAUUGGCUGUGGCUAGACUGCA is 0.24; for GGCAGAGCUCAACACAGCGUGGCUUAGUGGCUGUGGCUAGACUUCC it is 0.04.
In the case of GGCAGAGCUCAACACAGCGUGGCGAAGAGGCUGUGCCUAGACUGAC, the self-cleavage came to 0.02.
The figure for GGCAGAGCUCAACACAGCGUGGCGCAGUUGCUGUGGCUAAACUGGC is 0.02.
Under GGCAGAGCUCAACACAGCGUGGCACAGUGGGUGAGGCUAGACUGCC stands 0.
The figure for GGCAGAGCUCAACACAGCGUGGCACAGUGGCAGUGGCUAGACUACC is 0.05.
For the variant GGCAGAGCUCAACACAGCGUGGCUAAGUGGGUCUGGCUAGACUUCC, the self-cleavage was 0.03.
Turning to GGCAGAGCUCAACACAGCGUGGCAGAGUGGCUGUGCCUAGUCUUCC, the self-cleavage was found to be 0.03.
Under GGCAGAGCUCAACACAGCGUGGCCAAAUGGUAGUGGCUAGACUGCC stands 0.04; under GGCAGAGCUCAACACAGCGUGGCUAAGCGGCUGUGGCUAGACUGAC, 0.34; under GGCAGAGCUCAACACAGCGUGGCAGAGUACCUGUGGCUACACUGCC, 0.05.
For the variant GGCAGAGCUCAACACAGCGUGGCACAAUGGCUGUGGCUAGGCUGUC, the self-cleavage worked out at 0.09.
The figure for GGCAGAGCUCAACACAGCGUGGCAGAGUGGUUGUGGAUAGACUGCC is 0.12; for GGCAGAGCUCAACACAGCGUGGCACAGAGGCUGUGGAUAGACUGCC it is 0.03; for GGCAGAGCUCAACACAGCGUGGCCAAGUGGCUAUGGCUAGACUGGC it is 0.02.
On to GGCAGAGCUCAACACAGCGUGGCGUAGUGGCUGUUGUUAGACUGCC, for which the self-cleavage stood at 0.03.
Under GGCAGAGCUCAACACAGCGUGGCACAGUGGCUGUGGCUGGACUGCU stands 0; under GGCAGAGCUCAACACAGCGUGGCACAGUGGCCGUGGCUAGACUGCA, 0.06; under GGCAGAGCUCAACACAGCGUGGCGAAGUGGGUGGGGAUACACUGCC, 0.01.
Under GGCAGAGCUCAACACAGCGUGGCUAAGUGGCUGUGGGUAGACUACC stands 0.04; under GGCAGAGCUCAACACAGCGUGGCGAAGUUGCUGUGGCUUGACUGAC, 0.88.
For the variant GGCAGAGCUCAACACAGCGUGGCGAAAUGGCUGUGGCUAGACGGCC, the self-cleavage was determined as 0.02.
The figure for GGCAGAGCUCAACACAGCGUGGCACAAAGGCUGUGGCUAGACUGCC is 0.24.
As for GGCAGAGCUCAACACAGCGUGGCUAAGAGGGUGUGGCUAGACUGCC, the self-cleavage was found to be 0.45.
For GGCAGAGCUCAACACAGCGUGGCCAAGUGGCUGUGGCUACAUUUUC, the self-cleavage is 0.06.
Under GGCAGAGCUCAACACAGCGUGGCCAAGUGGCUGCGGCUCGACUGAC stands 0.06; under GGCAGAGCUCAACACAGCGUGGCUAAGUGGCGCUGGCUAGAUUGCC, 0.01; under GGCAGAGCUCAACACAGCGUGGCACAGCGGCUGUGACUAAACUGCC, 0.16.
Under GGCAGAGCUCAACACAGCGUGGCCAAGGGGCAGUGGCUAGACUGCC stands 0.03; under GGCAGAGCUCAACACAGCGUGGCUAAGUGGCUGUGACAAGAGAGCC, 0.03.
Under GGCAGAGCUCAACACAGCGUGGCAGCGUGGCUGUGGCUAGAUAGCC stands 0.03; under GGCAGAGCUCAACACAGCGUGGCACAGUGGCUGUGGCUUGAGUGCC, 0.03; under GGCAGAGCUCAACACAGCGUGGCUUAGUGGAUCUGGCUAGAAUGCC, 0.02.
As for GGCAGAGCUCAACACAGCGUGGCACUGUGGCUGUGGCUCUACUGAC, the self-cleavage turned out to be 0.
Under GGCAGAGCUCAACACAGCGUGGCUAAGUGGCUGUCGCUAGGCUGGC stands 0.03; under GGCAGAGCUCAACACAGCGUGGCUAAGUGGCUGUGGCGAUACCUCC, 0.08.
The figure for GGCAGAGCUCAACACAGCGUGGCCAAGAGGCUGUGGCUAGACUGUC is 0.1.

Source of the values: the RNAGym collection of RNA variant scans (doi:10.7554/elife.90254).
